Test results as given in article PMC9911399, “Two distinct binding modes provide the RNA-binding protein RbFox with extraordinary sequence specificity”.
Residue numbers refer to the chain shown, from its start. The list shows a part of the results.

T1: RBFOX1 RRM RbFoxmut (Fox-RRM*) (Homo sapiens, UniProt Q9NWB1 109-208, R118D;E147R;N151S;E152T)
T1 sequence: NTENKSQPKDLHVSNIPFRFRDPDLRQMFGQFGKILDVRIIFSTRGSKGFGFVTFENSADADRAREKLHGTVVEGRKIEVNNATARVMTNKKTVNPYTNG

B1: AGCGGUG (DNA:RNA)
RNA: GGGAGACCGGAAUUCAGAUUGUCCAGCGGUGUUAAAUCCCGUCGUAGCCACCA
DNA 1: CAATCTGAATTCCGGTCTCCC
DNA 2: TGGTGGCTACGACGGGATT
B2: GGGAAAA (DNA:RNA)
RNA: B1 RNA with A25G, C27G, G28A, G29A, U30A, G31A
DNA 1: CAATCTGAATTCCGGTCTCCC
DNA 2: TGGTGGCTACGACGGGATT
B3: ACGAUCA (DNA:RNA)
RNA: B1 RNA with G26C, C27G, G28A, G29U, U30C, G31A
DNA 1: CAATCTGAATTCCGGTCTCCC
DNA 2: TGGTGGCTACGACGGGATT
B4: CCCAGCA (DNA:RNA)
RNA: B1 RNA with A25C, G26C, G28A, U30C, G31A
DNA 1: CAATCTGAATTCCGGTCTCCC
DNA 2: TGGTGGCTACGACGGGATT
B5: UAAGGAG (DNA:RNA)
RNA: B1 RNA with A25U, G26A, C27A, U30A
DNA 1: CAATCTGAATTCCGGTCTCCC
DNA 2: TGGTGGCTACGACGGGATT
B6: UAAAAUC (DNA:RNA)
RNA: B1 RNA with A25U, G26A, C27A, G28A, G29A, G31C
DNA 1: CAATCTGAATTCCGGTCTCCC
DNA 2: TGGTGGCTACGACGGGATT
B7: GCGAAGU (DNA:RNA)
RNA: GGGAGACCGGAAUUCAGAUUGUCCGCGAAGUUUAAAUCCCGUCGUAGCCACCA
DNA 1: CAATCTGAATTCCGGTCTCCC
DNA 2: TGGTGGCTACGACGGGATT
B8: AGAGUCU (DNA:RNA)
RNA: B1 RNA with C27A, G29U, U30C, G31U
DNA 1: CAATCTGAATTCCGGTCTCCC
DNA 2: TGGTGGCTACGACGGGATT
B9: UAAGAGG (DNA:RNA)
RNA: B1 RNA with A25U, G26A, C27A, G29A, U30G
DNA 1: CAATCTGAATTCCGGTCTCCC
DNA 2: TGGTGGCTACGACGGGATT
B10: CACGGGG (DNA:RNA)
RNA: B1 RNA with A25C, G26A, U30G
DNA 1: CAATCTGAATTCCGGTCTCCC
DNA 2: TGGTGGCTACGACGGGATT
B11: CCUUACA (DNA:RNA)
RNA: B7 RNA with G25C, G27U, A28U, G30C, U31A
DNA 1: CAATCTGAATTCCGGTCTCCC
DNA 2: TGGTGGCTACGACGGGATT
B12: UUCUGCC (DNA:RNA)
RNA: B1 RNA with A25U, G26U, G28U, U30C, G31C
DNA 1: CAATCTGAATTCCGGTCTCCC
DNA 2: TGGTGGCTACGACGGGATT
B13: UAUGGUU (DNA:RNA)
RNA: B1 RNA with A25U, G26A, C27U, G31U
DNA 1: CAATCTGAATTCCGGTCTCCC
DNA 2: TGGTGGCTACGACGGGATT
B14: CAGAACA (DNA:RNA)
RNA: B7 RNA with G25C, C26A, G30C, U31A
DNA 1: CAATCTGAATTCCGGTCTCCC
DNA 2: TGGTGGCTACGACGGGATT
B15: UGUGGCA (DNA:RNA)
RNA: B1 RNA with A25U, C27U, U30C, G31A
DNA 1: CAATCTGAATTCCGGTCTCCC
DNA 2: TGGTGGCTACGACGGGATT
B16: GGCUGCA (DNA:RNA)
RNA: B1 RNA with A25G, G28U, U30C, G31A
DNA 1: CAATCTGAATTCCGGTCTCCC
DNA 2: TGGTGGCTACGACGGGATT
B17: AUAAGAG (DNA:RNA)
RNA: B1 RNA with G26U, C27A, G28A, U30A
DNA 1: CAATCTGAATTCCGGTCTCCC
DNA 2: TGGTGGCTACGACGGGATT
B18: GCCUUCU (DNA:RNA)
RNA: B7 RNA with G27C, A28U, A29U, G30C
DNA 1: CAATCTGAATTCCGGTCTCCC
DNA 2: TGGTGGCTACGACGGGATT
B19: UCAAUCU (DNA:RNA)
RNA: B7 RNA with G25U, G27A, A29U, G30C
DNA 1: CAATCTGAATTCCGGTCTCCC
DNA 2: TGGTGGCTACGACGGGATT
B20: AUACGGA (DNA:RNA)
RNA: B1 RNA with G26U, C27A, G28C, U30G, G31A
DNA 1: CAATCTGAATTCCGGTCTCCC
DNA 2: TGGTGGCTACGACGGGATT
B21: AUCCGUC (DNA:RNA)
RNA: B1 RNA with G26U, G28C, G31C
DNA 1: CAATCTGAATTCCGGTCTCCC
DNA 2: TGGTGGCTACGACGGGATT
B22: GUCAAGA (DNA:RNA)
RNA: B7 RNA with C26U, G27C, U31A
DNA 1: CAATCTGAATTCCGGTCTCCC
DNA 2: TGGTGGCTACGACGGGATT
B23: AGACUCG (DNA:RNA)
RNA: B1 RNA with C27A, G28C, G29U, U30C
DNA 1: CAATCTGAATTCCGGTCTCCC
DNA 2: TGGTGGCTACGACGGGATT
B24: UGUAAGU (DNA:RNA)
RNA: B7 RNA with G25U, C26G, G27U
DNA 1: CAATCTGAATTCCGGTCTCCC
DNA 2: TGGTGGCTACGACGGGATT
B25: GACACGU (DNA:RNA)
RNA: B7 RNA with C26A, G27C, A29C
DNA 1: CAATCTGAATTCCGGTCTCCC
DNA 2: TGGTGGCTACGACGGGATT
B26: GCGCUGA (DNA:RNA)
RNA: B7 RNA with A28C, A29U, U31A
DNA 1: CAATCTGAATTCCGGTCTCCC
DNA 2: TGGTGGCTACGACGGGATT
B27: UUCAAAU (DNA:RNA)
RNA: B7 RNA with G25U, C26U, G27C, G30A
DNA 1: CAATCTGAATTCCGGTCTCCC
DNA 2: TGGTGGCTACGACGGGATT
B28: UACGCAA (DNA:RNA)
RNA: B1 RNA with A25U, G26A, G29C, U30A, G31A
DNA 1: CAATCTGAATTCCGGTCTCCC
DNA 2: TGGTGGCTACGACGGGATT
B29: GUCGACU (DNA:RNA)
RNA: B7 RNA with C26U, G27C, A28G, G30C
DNA 1: CAATCTGAATTCCGGTCTCCC
DNA 2: TGGTGGCTACGACGGGATT
B30: GCCACGG (DNA:RNA)
RNA: B7 RNA with G27C, A29C, U31G
DNA 1: CAATCTGAATTCCGGTCTCCC
DNA 2: TGGTGGCTACGACGGGATT
B31: CACAACU (DNA:RNA)
RNA: B7 RNA with G25C, C26A, G27C, G30C
DNA 1: CAATCTGAATTCCGGTCTCCC
DNA 2: TGGTGGCTACGACGGGATT

Target: T1, RBFOX1 RRM RbFoxmut (Fox-RRM*)
Experiment: EMSA; HiTS-Eq, 1 nM pool, 10 min; buffer printed only for the single-RNA assays: 10 mM Tris pH 7.5, 150 mM NaCl, 3.4 mM EDTA, 0.001% NP-40, 30 C
Conditions: tags: His6 N-terminal (pET28a); label: 5' 32P
How it was run: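 Purified RbFox RRM (wild type or mutant) was equilibrated for 10 min in 50 µL with 1 nM of a 5′-radiolabelled pool of RNA with 7 randomized nucleotides, its flanks annealed to DNA oligonucleotides, across increasing protein concentrations. Free RNA was separated by 8% native PAGE, excised, reverse-transcribed, PCR-barcoded and sequenced on an Illumina HiSeq 2500. Relative association constants came from read-count changes of each variant against the control reaction, normalised to the cognate motif.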

Binder | binding signal
B1 | 0.144 KA relative to UGCAUGU
B2 | 0.0576 KA relative to UGCAUGU
B3 | 0.063 KA relative to UGCAUGU
B4 | 0.106 KA relative to UGCAUGU
B5 | 0.11 KA relative to UGCAUGU
B6 | 0.0436 KA relative to UGCAUGU
B7 | 0.0897 KA relative to UGCAUGU
B8 | 0.0632 KA relative to UGCAUGU
B9 | 0.0727 KA relative to UGCAUGU
B10 | 0.0614 KA relative to UGCAUGU
B11 | 0.132 KA relative to UGCAUGU
B12 | 0.226 KA relative to UGCAUGU
B13 | 0.0969 KA relative to UGCAUGU
B14 | 0.0481 KA relative to UGCAUGU
B15 | 0.136 KA relative to UGCAUGU
B16 | 0.203 KA relative to UGCAUGU

Binder | binding signal
B17 | 0.139 KA relative to UGCAUGU
B18 | 0.162 KA relative to UGCAUGU
B19 | 0.0493 KA relative to UGCAUGU
B20 | 0.0609 KA relative to UGCAUGU
B21 | 0.106 KA relative to UGCAUGU
B22 | 0.0794 KA relative to UGCAUGU
B23 | 0.0985 KA relative to UGCAUGU
B24 | 0.118 KA relative to UGCAUGU
B25 | 0.0904 KA relative to UGCAUGU
B26 | 0.0698 KA relative to UGCAUGU
B27 | 0.0826 KA relative to UGCAUGU
B28 | 0.0748 KA relative to UGCAUGU
B29 | 0.0819 KA relative to UGCAUGU
B30 | 0.104 KA relative to UGCAUGU
B31 | 0.083 KA relative to UGCAUGU
